This is one part of the list. The full chains were built here from the parent and the listed change. Inactive controls read about 0.05.
B1: TEV protease; numbered along this chain (parent)
chain: MGESLFKGPRDYNPISSSICHLTNESDGHTTSLYGIGFGPFIITNKHLFRRNNGTLVVQSLHGVFKVKDTTTLQQHLVDGRDMIIIRMPKDFPPFPQKLKFREPQREERICLVTTNFQTKSMSSMVSDTSCTFPSGDGIFWKHWIQTKDGQCGSPLVSTRDGFIVGIHSASNFTNTNNYFTSVPKNFMELLTNQEAQQWVSGWRLNADSVLWGGHKVFMVKPEEPFQPVKEATQL

Variants of: B1
Assay: raw area under fraction-flipped curve 0-4 h after induction (AUC4h, not background-subtracted), DNA-recorder readout of cleavage of the substrate (dimensionless); higher = more cleavage of the substrate by the protease variant
Settings: temperature: 34 °C; time window: 0-4 h after rhamnose induction
Description: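 In vivo DNA recorder in E. coli TOP10(DE3) ΔrhaA at 34 °C. Each TEVp single-site mutant (parent TEVp 0) is paired with a single-site variant of the 7-mer TEVs (canonical ENLYFQ|S). The substrate sits between flexible linkers in a Bxb1-sfGFP-TEVs-SsrA fusion, so cleavage stabilises Bxb1 and speeds flipping of a recombination array, read by NGS. The value is the raw area under the fraction-flipped curve over 0-4 h after rhamnose induction (AUC4h), with ≥20 reads per time point. It is not background-subtracted; inactive controls average about 0.047.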
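Also: Bxb1 expression induced with 0.2% (w/v) L-rhamnose at OD600 near 0.5, cultures sampled hourly, flipped fraction per protease–substrate barcode pair counted by paired-end Illumina sequencing.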

Row | Variant | area with substrate ENLYFAS | area with substrate ENLYFCS | area with substrate ENLYFFS | area with substrate ENLYFGS | area with substrate ENLYFHS | area with substrate ENLYFIS | area with substrate ENLYFKS | area with substrate ENLYFNS | area with substrate ENLYFSS | area with substrate ENLYFTS | area with substrate ENLYFVS | area with substrate ENLYFWS | area with substrate ENLYFYS | area with substrate ENLYFES | area with substrate ENLYFLS | area with substrate ENLYFMS | area with substrate ENLYFPS | area with substrate ENLYFRS | area with substrate ENLYFDS
1 | I164H | 0.0587 | 0.0505 | 0.0532 | 0.0661 | 0.0563 | 0.043 | 0.0624 | 0.057 | 0.0575 | 0.0403 | 0.0468 | 0.0532 | 0.0321 | – | – | – | – | – | –
2 | V183I | 0.0603 | – | 0.0752 | – | 0.0723 | 0.044 | 0.0509 | 0.0605 | – | 0.0628 | 0.0678 | 0.0544 | 0.0566 | 0.0626 | 0.0469 | 0.0519 | 0.0245 | 0.0388 | –
3 | V183C | 0.0945 | 0.0591 | 0.064 | 0.0678 | 0.0725 | 0.0542 | – | 0.0654 | 0.063 | 0.0721 | 0.0613 | – | – | 0.0626 | 0.0551 | 0.0775 | 0.0591 | 0.0374 | 0.0734
4 | I139N | 0.0319 | 0.0524 | 0.0562 | – | – | 0.0546 | 0.068 | – | 0.0999 | 0.0796 | 0.0638 | 0.0566 | 0.0511 | 0.0625 | 0.0571 | 0.0658 | 0.0565 | 0.0682 | –
5 | I139Q | 0.0304 | 0.0471 | 0.0683 | – | – | 0.0621 | 0.0741 | – | 0.0393 | 0.064 | 0.0624 | 0.055 | 0.0666 | – | 0.0693 | – | 0.065 | – | 0.0781
6 | I145C | 0.0584 | 0.0552 | 0.0549 | – | 0.0322 | 0.0582 | – | 0.0739 | – | 0.0572 | 0.0506 | 0.057 | – | 0.0613 | – | 0.0773 | 0.0558 | 0.0657 | –
7 | E189V | 0.0481 | 0.059 | 0.0589 | – | 0.0663 | 0.0614 | 0.0677 | 0.083 | – | 0.0507 | 0.0545 | – | – | 0.0663 | 0.0606 | 0.0709 | 0.0542 | 0.0622 | –
8 | S169N | 0.0567 | 0.0544 | 0.0643 | – | 0.0731 | 0.0516 | – | – | – | 0.0464 | 0.0636 | 0.0531 | – | 0.0665 | – | 0.0545 | 0.0523 | 0.0614 | 0.0552
9 | S169C | 0.0566 | 0.0468 | 0.0566 | – | – | 0.0577 | 0.0655 | 0.0466 | – | 0.0571 | 0.0771 | 0.0612 | 0.0605 | 0.0578 | – | 0.0571 | 0.0581 | – | 0.0737
10 | T132Y | 0.0692 | 0.0499 | 0.068 | – | 0.0597 | 0.0262 | 0.0528 | 0.0477 | – | – | – | 0.0521 | – | – | – | – | 0.0605 | – | –
11 | T132S | 0.0591 | – | 0.0867 | – | – | 0.0531 | 0.0779 | – | 0.0596 | 0.0576 | – | – | – | 0.048 | – | 0.0837 | – | 0.0419 | 0.0807
12 | T132G | 0.0646 | 0.0602 | 0.072 | 0.0898 | 0.0442 | 0.0573 | 0.0597 | 0.0675 | – | – | 0.0619 | 0.0694 | 0.0562 | 0.0557 | – | 0.0608 | 0.0589 | – | 0.0446
13 | T159E | 0.0621 | 0.0657 | 0.0622 | – | 0.0412 | 0.0499 | 0.0502 | – | 0.0602 | – | – | 0.0456 | – | 0.0652 | – | – | 0.0596 | – | 0.0469
14 | F180I | 0.0031 | 0.0397 | 0.0567 | 0.052 | – | 0.0511 | 0.0556 | – | 0.048 | 0.0509 | 0.0546 | – | 0.0442 | 0.0541 | – | – | 0.0472 | – | –
15 | E195D | 0.0615 | – | 0.0748 | 0.037 | 0.0409 | 0.0583 | 0.0855 | – | 0.0564 | – | – | – | – | 0.065 | – | 0.0733 | – | – | –
16 | M188L | 0.0668 | 0.0602 | 0.0635 | – | – | 0.0687 | 0.0627 | – | 0.0686 | 0.0662 | – | – | – | – | – | – | 0.0595 | – | –
17 | M188T | 0.0482 | 0.0656 | 0.0652 | – | 0.0514 | 0.055 | 0.0576 | 0.0518 | 0.0447 | 0.0409 | – | 0.0457 | 0.0542 | 0.0625 | – | 0.0704 | 0.0614 | 0.0559 | 0.0435
18 | G166T | 0.0234 | 0.0649 | 0.0485 | – | 0.0503 | – | 0.0447 | – | – | 0.0466 | – | – | – | 0.0496 | – | – | 0.0691 | – | –
19 | G166S | 0.0499 | 0.0338 | 0.0582 | 0.0385 | – | 0.0558 | – | 0.0442 | – | 0.0323 | – | 0.0627 | 0.0484 | 0.0316 | 0.0343 | 0.049 | 0.0441 | 0.03 | –
20 | Q194S | 0.0536 | 0.0245 | 0.0579 | – | – | 0.0646 | 0.0602 | 0.076 | – | – | – | 0.0524 | – | 0.0784 | 0.0542 | 0.0633 | 0.0601 | 0.0554 | 0.0638
21 | P155M | 0.0616 | 0.0418 | 0.0685 | – | – | 0.0465 | – | 0.0505 | – | 0.0402 | – | 0.0568 | – | 0.0513 | – | 0.0623 | 0.0519 | 0.0475 | –
22 | G150L | 0.0585 | 0.058 | 0.0669 | – | 0.0547 | 0.0537 | 0.0739 | 0.0569 | – | – | 0.0521 | 0.0507 | 0.0453 | 0.0616 | 0.0403 | 0.0662 | 0.0573 | 0.0451 | 0.0582
23 | G150F | 0.0524 | 0.0588 | – | – | 0.055 | 0.0586 | 0.0646 | 0.0518 | – | 0.0471 | 0.0652 | 0.0679 | 0.0505 | – | – | 0.0719 | – | – | 0.0562
24 | S171G | 0.0625 | – | 0.0402 | 0.0316 | 0.0427 | 0.0571 | – | – | – | 0.057 | – | – | – | 0.0649 | – | – | 0.0603 | 0.0425 | 0.047
25 | L156K | 0.0644 | 0.0643 | 0.0617 | 0.0482 | 0.0538 | 0.0491 | 0.0525 | 0.0595 | 0.0502 | 0.0516 | – | 0.0538 | – | 0.0546 | 0.0622 | – | 0.0553 | 0.0514 | 0.0731
26 | T192P | 0.0585 | 0.0641 | 0.0678 | – | 0.0452 | 0.058 | 0.0667 | 0.0573 | – | 0.0609 | 0.061 | 0.0577 | – | 0.0683 | 0.0658 | – | 0.0393 | 0.0663 | –
27 | G162H | 0.0662 | – | 0.0677 | 0.0601 | – | 0.0481 | 0.0695 | 0.0787 | – | 0.0552 | 0.0561 | 0.0573 | – | 0.0662 | – | 0.06 | 0.0581 | – | 0.0552

— the supplement of paper PMC12217912
